SMILES strings stand for the structures. Over roughly 110,000 compounds, “z-score” has its median near -0.1; the highest 2% begin near 2. The list shows a part of the results. The source made the active and inactive calls.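 The calls were made as follows: active = z-score in the third read window above 3 or below -3; inactive = the rest.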 Residues, ends and D or L forms follow the SMILES beside them. *: point of attachment. Cbz = O=C(OCc1ccccc1)*

The target of this experiment is Metabotropic glutamate receptor 8 (Rattus norvegicus) (UniProt P70579). As to the kind of experiment: mGluR8 Gi/Go-coupled signaling modulation – cell-based, rat, thallium flux, HTS, primary screen (AID 488969). The settings on record: HEK293 rat mGluR8, GIRK (G protein-gated inwardly rectifying potassium channel) thallium flux, FluoZin2; at 10 µM; stronger effect = higher value; submaximal glutamate (EC20) added with thallium.
UniProt P70579, sequence (P70579 whole entry, looked up): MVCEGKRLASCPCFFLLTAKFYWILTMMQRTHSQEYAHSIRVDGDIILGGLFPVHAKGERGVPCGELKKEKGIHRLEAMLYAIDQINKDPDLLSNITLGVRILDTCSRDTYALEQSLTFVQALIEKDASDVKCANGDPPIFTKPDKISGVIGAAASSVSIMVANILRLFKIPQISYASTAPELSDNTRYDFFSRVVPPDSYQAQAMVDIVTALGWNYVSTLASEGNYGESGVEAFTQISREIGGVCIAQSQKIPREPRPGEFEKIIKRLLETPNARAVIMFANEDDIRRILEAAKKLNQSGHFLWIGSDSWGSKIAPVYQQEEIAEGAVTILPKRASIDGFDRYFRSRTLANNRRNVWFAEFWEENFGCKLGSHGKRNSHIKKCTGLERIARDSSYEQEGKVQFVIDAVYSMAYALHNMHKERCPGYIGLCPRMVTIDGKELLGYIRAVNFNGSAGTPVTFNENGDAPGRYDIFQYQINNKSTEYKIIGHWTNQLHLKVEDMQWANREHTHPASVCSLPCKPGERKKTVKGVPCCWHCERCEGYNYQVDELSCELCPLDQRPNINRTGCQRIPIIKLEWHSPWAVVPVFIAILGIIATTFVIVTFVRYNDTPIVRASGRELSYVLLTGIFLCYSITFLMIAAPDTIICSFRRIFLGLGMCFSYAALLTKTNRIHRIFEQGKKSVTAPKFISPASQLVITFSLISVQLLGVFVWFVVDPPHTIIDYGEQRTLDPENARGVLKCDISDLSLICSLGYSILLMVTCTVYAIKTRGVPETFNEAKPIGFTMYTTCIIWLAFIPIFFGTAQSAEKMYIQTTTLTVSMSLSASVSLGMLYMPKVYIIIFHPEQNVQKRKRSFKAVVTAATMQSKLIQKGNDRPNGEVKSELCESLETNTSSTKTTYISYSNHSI
As for `COc1ccc(C(=O)NCCc2nnc(SCC(=O)Nc3ccccc3C(C)C)n2C)cc1`, the z-score is -0.39.

Take `COc1cc(OC)cc(-c2nnc(SCc3cccc(C(=O)O)c3)o2)c1`: the z-score is -1.4.

Compound `Cc1ccc(SCc2nc3ccccc3[nH]2)cc1` came in with a z-score of -0.0609.

Compound `CCOC(=O)c1sc(=S)n(-c2ccc(C)cc2)c1SC` gave a z-score of -0.0488.

`CCOC(=O)c1c(C)n(-c2ccc(OC)cc2)c2c(C/C(C)=N/O)c(Br)c(OC)c(O)c12` yielded a z-score of 0.0312.

`Cc1ccc(C)n1-c1sc2c(c1C#N)CCC(C)C2` (stereo not given) showed a z-score of -0.0968.

Turning to `O=C(COc1ccc(Cl)cc1Cl)NNC(=S)Nc1ccc(F)cc1`, the z-score is active: 7.82.

With `O=C(Cn1nnc(-c2ccncc2)n1)Nc1ccc2c(c1)CCC2`, the z-score was -0.151.

For `COc1ccc(CNCCc2ccccc2)cc1OCC(N)=O`, the z-score was -0.129.

Turning to `COc1ccc(OCc2cccc(C(=O)NN)c2)cc1`, the z-score was -0.336.

As to `COc1cc(NS(=O)(=O)c2ccc(NC(=S)NC(=O)C3CCCC3)cc2)nc(OC)n1`, the z-score is -0.559.

Turning to `Cc1ccsc1C(=O)OCc1nc2ccccc2c(=O)[nH]1`, the z-score amounted to 0.0258.

`CCN(CC)CCN1C(=O)C(O)=C(C(=O)c2cccs2)C1c1ccccn1` (stereo not given) gave a z-score of 0.445.

Compound `CCOc1c(Cl)cc(Cl)cc1CNCCNCCO` displayed a z-score of 0.738.

For the compound `COC(=O)c1ccc(-n2nnnc2SCC(=O)N2CCCCC2)cc1`, the z-score was -0.0991.

Compound `CC(=O)CCc1oc2ccc(NC(C)=O)cc2c1-c1ccc(C)o1` came in with a z-score of -0.484.

As for `O=c1c2c3n(c(=O)nc2[nH]n1-c1ccccc1)CCCCC3`, the z-score was -1.04.

`O=C(Nc1ccc(N2CCN(C(=O)c3ccccc3)CC2)c(Cl)c1)c1cccnc1` showed a z-score of -0.512.

With `COC(=O)Nc1ccc(C)cc1NC(=O)OC`, the z-score came to 0.827.

In turn, `CCOC(=O)CN1CC23C=CC(O2)C(C(=O)Nc2ccc(F)cc2)C3C1=O` (stereo not given) came in with a z-score of -0.522.

`COC(=O)C1=C(O)/C(=C\c2ccc(CNS(=O)(=O)c3ccccc3)o2)N=C1C` showed a z-score of -0.112.

In turn, `Cc1ccc(S(=O)(=O)N2CCN(C(=O)c3cc4c(C)nn(-c5ccccc5C)c4s3)CC2)cc1` registered a z-score of -0.106.

With `O=C(Nc1ccccc1)c1nnsc1S(=O)(=O)c1ccc(Cl)cc1`, the z-score was -0.196.

`Nc1ncnc2c1ncn2CCN1CCOCC1` came in with a z-score of 0.113.

The compound `Cc1cc(NC(=O)c2cc3ccccc3oc2=O)no1` displayed a z-score of 0.0723.

For `Clc1ccc(Cn2cc(Br)cn2)cc1Cl`, the z-score came out at 0.302.

In the case of `C/C(=N\O)C(C)/[N+]([O-])=C/c1nc(C)c(C)n1O` (stereo not given), the z-score worked out at 1.53.

`Cc1cccc(N(CC(=O)NC2CCCCC2)C(=O)CCCC(=O)Nc2ccccn2)c1` registered a z-score of -0.0152.

`O=C(c1ccccc1)N1CCN(c2ccc(NCc3ccc4c(c3)OCO4)cc2)CC1` gave a z-score of -1.18.

In the case of `Cc1ccccc1-c1nc(CN2CCC(C(=O)NCCC3=CCCCC3)CC2)c(C)o1`, the z-score stood at 1.63.

In turn, `CC(C)c1c(O)nc(SCC(=O)N2CCOCC2)[nH]c1=O` registered a z-score of -0.357.

`O=C(NCC(=O)N(c1ccc(F)cc1)C(C(=O)NCC1CCCO1)c1ccccc1)c1ccco1` (stereo not given) registered a z-score of -0.245.

In turn, `Cc1cccc(NC(=S)NCc2ccccn2)c1` returned a z-score of 0.216.

The compound `COc1cccc(C(=O)Oc2cccc(N3C(=O)C4C5CC(C(Br)C5Br)C4C3=O)c2)c1` (stereo not given) came in with a z-score of -0.026.

For the compound `CCC1(C)Cc2c(sc3nnn(CC(=O)Nc4ccccc4C)c(=O)c23)CO1` (stereo not given), the z-score is -0.515.

Compound `CC(=O)Nc1ccc(S(=O)(=O)NC(C(=O)O)C(C)C)cc1` (stereo not given) returned a z-score of 0.136.

`CCOCC(=O)Nc1nnc(Cc2ccc(OC)c(OC)c2)s1` returned a z-score of 0.0042.

Compound `Cc1cc(=O)[nH]c(SCCOc2ccc3c(c2)CCC3)n1` came in with a z-score of 0.129.

As to `COc1ccccc1N(C)S(=O)(=O)c1ccc(C(=O)OCC(=O)c2c[nH]c3ccccc23)cc1`, the z-score was -0.0916.

`CC1=C(C(=O)Nc2ccc(Cl)cc2)C(c2ccco2)NC(=O)N1` (stereo not given) gave a z-score of 0.0306.

Compound `COC(=O)c1cc2sccc2n1CC(=O)Nc1ccc(OC)c(OC)c1OC` displayed a z-score of -0.315.

For the compound `Cc1nc(=O)c(-c2ccccc2)c(C)n1-c1ccc(O)cc1`, the z-score is -1.56.

On to `O=C(CSc1nnnn1C1CCCCC1)N1c2ccccc2Sc2ccccc21`, for which the z-score is -1.48.

Compound `CC1CC(CC(C)C(=O)Nc2nncs2)C(=O)O1` (stereo not given) registered a z-score of -0.122.

For `Cc1nc(SCC(=O)NCc2ccccc2)c2oc3ccccc3c2n1`, the z-score is -0.889.

As to `CS(=O)(=O)Nc1ccccc1C(=O)N1CCOCC1`, the z-score turned out to be 1.59.

On to `O=[N+]([O-])c1ccc(N2CCNCC2)cc1Sc1nc2ccccc2[nH]1`, for which the z-score was -0.0109.

In the case of `COC(=O)C1CCCN1C(=O)C1CCCN1C(=O)CNC(=O)OCc1ccccc1` (stereo not drawn) (Cbz-Gly-Pro-Pro-OMe; configuration not given here), the z-score was -0.518.

`CC(Oc1ccccc1)C(=O)NC1CCN(Cc2ccccc2)CC1` (stereo not given) came in with a z-score of -2.68.

The compound `COc1cc(Cl)c(S(=O)(=O)NCCN2CCOCC2)cc1Cl` had a z-score of 0.7.

For `O=C(Nc1ccc(F)cc1)Nc1ccc(N2CCCC2)c(S(=O)(=O)Nc2ccccc2Cl)c1`, the z-score was -0.191.

Compound `COc1ccccc1Nc1nnc(SCC(=O)Nc2cc(C)on2)s1` had a z-score of -0.352.

`Cc1noc(C)c1CSc1ccccc1C(=O)Nc1nccs1` had a z-score of 0.618.

As for `CCn1c(CCNC(=O)c2ccccc2Cl)n[nH]c1=S`, the z-score is -0.0402.

Compound `CCSc1ccccc1C(=O)N1CCCC1` gave a z-score of -0.309.

For the compound `COC(=O)C1(Cc2ccccc2)NC(c2ccccc2C)C2C(=O)N(c3ccc4c(c3)OCO4)C(=O)C21` (stereo not given), the z-score is 0.42.

For the compound `CCCCc1n[nH]c2c1/C(=N/O)CC(c1ccccc1)C2` (stereo not given), the z-score came out at 0.131.

For `C=CCN(C)CCCNC(=O)/C=N/O`, the z-score was -0.0821.

Turning to `COC(=O)Cc1c(C)c2cc(Cl)c(OC(=O)c3ccco3)cc2oc1=O`, the z-score was found to be 0.852.

`CCn1c(C)c2c(C)nnc(C)c2c1C` gave a z-score of 0.319.

With `COCCNC(=O)Cn1cnc2sc(C)c(S(=O)(=O)N3CCC(C)CC3)c2c1=O`, the z-score is 0.33.

For `O=C(/C=C/c1ccccc1)Nc1nnc(SCC(=O)c2ccc3ccccc3c2)s1`, the z-score is -0.0885.

Take `Nc1nc(SCCN2C(=O)c3ccccc3C2=O)n[nH]1`: the z-score is -0.241.

Regarding `N#C/C(=C\c1cn(CCOc2ccccc2)c2ccccc12)C(=O)NCc1cccs1`, the z-score is -0.283.

As for `O=C(Nc1ccc(S(=O)(=O)N2CCOCC2)cc1)c1ccc(Cl)s1`, the z-score is -0.204.

As to `O=C1N=C(N2CCc3ccccc3C2)S/C1=C\c1cccc(O)c1`, the z-score was -0.567.

For the compound `Cc1nc(C)c(C(=O)Nc2ccccc2)s1`, the z-score was 0.738.

`Cc1cccc(C(O)(C(=O)NNc2ccc3ccccc3n2)c2cccc(C)c2)c1`: the z-score was determined as 0.0221.

In turn, `CCCC(=O)N1c2ccccc2C(N(C(C)=O)c2ccccc2)CC1C` (stereo not given) returned a z-score of -0.945.

As to `N#Cc1c(N2CCCCC2)nc(N)c2c(N)nc3c(c12)CC(c1ccccc1)O3` (stereo not given), the z-score was -0.197.

The values above are taken from PubChem BioAssay AID488969 (Vanderbilt High Throughput Screening Facility, 2010).
